# Results reported in the supplement of paper PMC12217912.
# The list shows a part of the results. Sequences were assembled here from the parent chain. Inactive controls read about 0.05.
# B1: TEV protease; numbered along this chain (parent)
# chain: MGESLFKGPRDYNPISSSICHLTNESDGHTTSLYGIGFGPFIITNKHLFRRNNGTLVVQSLHGVFKVKDTTTLQQHLVDGRDMIIIRMPKDFPPFPQKLKFREPQREERICLVTTNFQTKSMSSMVSDTSCTFPSGDGIFWKHWIQTKDGQCGSPLVSTRDGFIVGIHSASNFTNTNNYFTSVPKNFMELLTNQEAQQWVSGWRLNADSVLWGGHKVFMVKPEEPFQPVKEATQL
# Variants of: B1
# Test: raw area under fraction-flipped curve 0-4 h after induction (AUC4h, not background-subtracted), DNA-recorder readout of cleavage of the substrate (dimensionless); higher = more cleavage of the substrate by the protease variant
# Details: temperature: 34 °C; time window: 0-4 h after rhamnose induction
# Description: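 In vivo DNA recorder in E. coli TOP10(DE3) ΔrhaA at 34 °C. Each TEVp single-site mutant (parent TEVp 0) is paired with a single-site variant of the 7-mer TEVs (canonical ENLYFQ|S). The substrate sits between flexible linkers in a Bxb1-sfGFP-TEVs-SsrA fusion, so cleavage stabilises Bxb1 and speeds flipping of a recombination array, read by NGS. The value is the raw area under the fraction-flipped curve over 0-4 h after rhamnose induction (AUC4h), with ≥20 reads per time point. It is not background-subtracted; inactive controls average about 0.047.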
# 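Also: Bxb1 expression induced with 0.2% (w/v) L-rhamnose at OD600 near 0.5, cultures sampled hourly, flipped fraction per protease–substrate barcode pair counted by paired-end Illumina sequencing.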
Variant,area with substrate ENLYAQS,area with substrate ENLYCQS,area with substrate ENLYDQS,area with substrate ENLYEQS,area with substrate ENLYGQS,area with substrate ENLYHQS,area with substrate ENLYIQS,area with substrate ENLYKQS,area with substrate ENLYLQS,area with substrate ENLYMQS,area with substrate ENLYNQS,area with substrate ENLYPQS,area with substrate ENLYQQS,area with substrate ENLYRQS,area with substrate ENLYSQS,area with substrate ENLYVQS,area with substrate ENLYWQS,area with substrate ENLYTQS,area with substrate ENLYYQS
H168I,0.0542,0.0466,0.061,0.0655,0.06,0.0733,0.0594,0.0369,0.117,0.0564,0.0549,0.0576,0.0525,0.0555,0.0515,0.0637,0.0496,–,–
H168Y,0.0669,0.0651,0.0469,0.0602,0.0562,0.0596,0.0462,0.0545,–,0.0608,0.0621,0.0483,0.0699,0.0605,0.0572,0.0594,–,0.0435,–
H168D,0.0712,0.0093,0.0618,0.0559,0.0682,0.0709,0.0633,0.0615,–,0.0546,0.0664,0.0603,–,–,–,0.0576,0.0479,–,–
D161V,0.0546,0.0546,0.0514,0.0497,0.0572,0.0534,0.0461,0.0527,–,0.0475,0.0549,0.0493,0.0691,0.0558,–,0.0586,0.0658,0.048,0.0624
L56W,0.0509,–,0.0565,0.0513,0.0631,0.0577,0.0628,0.0517,–,0.0548,0.0828,0.0544,0.0693,0.0622,0.0653,0.0652,0.05,–,0.0541
L56I,0.0655,–,0.054,0.0643,0.0682,–,0.118,–,–,–,0.0677,0.0649,–,0.0501,–,0.125,0.0861,0.0833,0.0595
L56T,0.0652,0.0475,0.056,–,0.05,0.0573,0.0747,0.0542,–,0.064,0.0592,0.0573,–,0.0713,–,–,0.0564,0.0574,0.0462
W144Y,0.0714,0.0699,0.0735,0.0666,0.0696,0.0616,0.102,0.079,0.0607,0.0828,0.073,0.0843,–,0.0654,0.0561,0.0786,0.0805,–,–
S32A,0.0956,0.088,0.0767,0.0579,0.0644,0.0617,–,0.0582,0.0538,0.0945,0.0785,0.0772,0.0437,0.0629,0.0643,0.121,0.0764,0.0736,–
S32D,0.0693,0.0375,–,0.0609,0.0657,0.0636,–,0.0605,–,0.0689,0.0816,–,0.0649,0.0549,0.0757,0.0873,0.0776,0.0635,0.0705
S32R,0.0794,0.0913,0.0545,0.0803,0.0831,0.0671,0.134,0.0522,–,0.0773,0.0638,0.0736,0.0641,0.063,0.0759,0.0984,0.0574,0.0856,0.0707
S32E,0.0688,0.056,0.0618,0.0636,0.0605,0.0532,–,0.064,–,0.0751,0.0606,0.0797,0.065,0.0633,0.0687,0.0865,0.0615,0.0702,–
P40G,0.0912,–,0.0529,0.065,–,0.074,0.133,0.0561,–,–,0.0628,0.0723,0.0713,0.0498,0.0753,0.104,0.0913,–,0.0698
P40K,0.0754,–,0.0472,0.063,–,0.0713,0.0626,0.063,–,0.0673,0.0807,0.085,0.0493,0.0453,–,0.106,–,–,0.0687
P40F,0.0856,–,–,0.0659,0.066,0.062,0.102,0.0614,–,0.082,0.0632,0.0647,0.0634,0.0539,0.0705,0.103,0.078,0.0834,–
P40C,0.0847,0.0876,0.0359,0.0573,0.0649,0.0731,0.131,0.0625,0.102,0.0841,0.0577,0.0803,0.0638,0.0551,0.0864,0.109,0.0821,0.08,–
P104D,0.061,0.0601,–,–,0.0559,0.0564,0.0499,0.0477,0.0305,0.0428,–,0.0599,0.0419,0.0563,0.0548,0.0604,–,0.0426,0.0385
G39A,0.0612,–,0.0255,0.0521,0.0387,0.0469,0.041,–,0.0471,0.0466,0.0386,–,0.0395,0.0303,0.0394,0.0589,0.0398,0.0548,–
Q197W,0.0699,0.0791,0.0576,0.0629,0.0727,0.0607,0.0769,0.0096,–,0.0725,0.0719,0.0536,0.0583,0.065,0.066,0.123,0.0657,0.0705,0.0515
N24R,0.055,0.0578,0.0567,0.0557,–,0.0532,0.0663,0.065,–,0.0598,0.0576,0.0673,–,0.0553,0.0568,–,0.0721,0.0589,0.0722
N24H,0.0828,0.0697,0.0605,–,0.0652,0.0335,0.0921,0.0463,–,0.0819,–,0.0422,0.0458,0.0612,0.0692,0.0659,0.0606,–,–
N24Q,0.0697,–,0.0664,0.0576,0.0651,0.0641,0.108,–,–,0.0853,0.0772,0.0648,–,0.0455,0.0616,0.0878,0.0902,–,0.0641
L48G,0.0569,–,0.0599,0.0659,0.0639,0.0514,0.0635,0.0628,–,0.0668,0.0579,0.0559,0.0852,0.0627,–,–,0.0664,0.0696,0.0547
